# From PubChem BioAssay AID1814 (Broad Institute, 2009)
# Hit rate of the full screen: of about 300,000 compounds, about 22,000 (7.3%) were called active. Inconclusive means that the source gave no clear call. Such entries were picked first, then a sample of the others. Rule as the data show it: active = activity score below about -60%; inconclusive = mostly about -28% to -61%; inactive = positive scores.
# Experiment: Activators via SNCA 5'UTR binding, MLPCN (AID 1814)
# Details: alpha-synuclein 5'UTR reporter, activators screen; stronger effect = lower value; tested at 7.5 µM
row,Compound,activity score
1,O=C(NC1CCCCC1)c1ccc(N2CCCC2=O)cc1,inconclusive: -56.7%
2,Cc1ccc(/C=N/NC(=O)c2ccc(Br)o2)s1,active: -111%
3,Cc1cccc(/C=C2\Sc3ccc(C(=O)N4CCC(C(N)=O)CC4)cc3N(C)C2=O)c1,inconclusive: -60.3%
4,O=C1C(NS(=O)(=O)c2ccc(Cl)cc2)=C(N2CCCCC2)C(=O)c2ccccc21,inconclusive: -40.7%
5,Cc1ccc(-c2cc3nc(C)cc(NCc4ccco4)n3n2)cc1,active: -157%
6,O=C(N/N=C/c1ccc(O)cc1O)c1ccc(CN2C(=O)c3cccc4cccc2c34)cc1,inactive: 62.5%
7,O=C(Nc1ccccc1)Nc1cc(OCC(F)(F)F)cc(OCC(F)(F)F)c1,inactive: 74.4%
8,Cc1ccc(C2=NN(CCC(=O)NCCCN3CCOCC3)C(=O)CC2)cc1,inconclusive: -39.5%
9,CC1CCCCN1S(=O)(=O)c1ccc(C(=O)N(CCCN(C)C)c2nc3ccc(Br)cc3s2)cc1 (stereo not drawn),inactive: 67%
10,CCn1cnc2cc(NC(=O)c3ccco3)ccc21,inconclusive: -54.1%
11,Cc1ccc2[nH]c3c(=O)n(CCc4cnc[nH]4)cnc3c2c1,inconclusive: -44.2%
12,COc1ccc(N/C=C2\CCc3ccccc3C2=O)cc1,inactive: 94.4%
13,Cc1cccc(C(=O)N/N=C/c2cc(Br)c(Br)o2)c1,inconclusive: -61.4%
14,Cc1ccc(C2=NC3(CCCC3)NC2=S)cc1,inconclusive: -44.9%
15,CC(Oc1ccccc1Br)C(=O)N1CCc2ccccc21 (stereo not drawn),inconclusive: -42.4%
16,Cc1cccc(NC(=S)NNC(=O)c2ccccc2OC(F)F)c1,inconclusive: -47.2%
17,c1ccc(-c2noc(-c3ccc4ccccc4c3)n2)nc1,inactive: 113%
18,CCSc1ccc(/C(N)=N/OC(=O)c2cccs2)cn1,active: -120%
19,Cn1c(C(C#N)C(=O)c2ccco2)nc2ccccc21 (stereo not drawn),active: -125%
20,COc1cc(Cl)ccc1OCc1cc(C(=O)N(C)C2CCOC2)no1 (stereo not drawn),inconclusive: -59.4%
21,O=C(CSCc1ccc(F)cc1)Nc1ccccc1,inconclusive: -56%
22,O=[N+]([O-])c1ccc(/C=N/NC(=S)Nc2ccccc2)o1,inconclusive: -52.5%
23,Cc1ccc2nc3c(cc(S(=O)(=O)c4ccccc4)c(=N)n3Cc3ccco3)c(=O)n2c1,inconclusive: -39.2%
24,Cc1occc1C(=O)Nc1ccc2c(c1)OCCO2,inconclusive: -55.9%

row,Compound,activity score
1,Cn1ccnc1SCC(=O)Nc1nc2ccccc2s1,active: -125%
2,COc1ccc(-c2cc(C(=O)N3CCOCC3)no2)cc1,inactive: 72.6%
3,CN(CCOc1ccccc1Cl)Cc1ccccc1,inconclusive: -52.6%
4,CCc1cc(C(c2ccncc2)N2CCN(C)CC2)c(NC(=O)c2ccccc2)s1 (stereo not drawn),inconclusive: -32.6%
5,COC(=O)c1sc2nc(C)c([N+](=O)[O-])c(C)c2c1N,inconclusive: -54.8%
6,CC1=C(C(=O)OCC2CCCO2)C(c2coc3ccc(C)cc3c2=O)C2=C(CCCC2=O)N1 (stereo not drawn),inconclusive: -61.1%
7,Cc1cc2n(n1)C(c1ccsc1)Nc1ccccc1-2 (stereo not drawn),inconclusive: -37.8%
8,CN(C)/C=N/C(=S)Nc1ccc(Cl)cc1,inconclusive: -56.2%
9,O=[N+]([O-])c1ccc2c(c1)nc1n2CCN(c2ccccc2)C1,active: -125%
10,COCc1nc(-c2ccc(-c3ccccc3)nc2OC)no1,active: -100%
11,O=C1c2cccc3cccc(c23)C(=O)N1OS(=O)(=O)c1ccccc1,inconclusive: -51.4%
12,Cc1cc2c(cc1C)C(c1cc(Br)ccc1F)CC(=O)N2 (stereo not drawn),inactive: 64.9%
13,COc1ccc(Cc2nc(C(=O)Nc3ccccc3)cs2)cc1,active: -73.1%
14,FC(F)(F)c1cc(-c2ccccn2)nc2cc(-c3ccccc3)nn12,active: -77.6%
15,CC(C)(C)c1ccc(C(=O)c2cn[nH]c2-c2ccccc2O)cc1,active: -134%
16,Cn1c(SCC(=O)c2ccc(F)cc2)nnc1-c1cccnc1,inconclusive: -43.3%
17,CC(C)(C)OC(=O)N/N=C/c1cc(N=Nc2ccccc2)ccc1O,inconclusive: -56%
18,CCCCCc1ccc(-c2ccc(OCC)cc2)nc1,inactive: 79.7%
19,N=c1n(CCN2CCCC2)c2ccccc2n1CC(O)c1ccc(Cl)c(Cl)c1 (stereo not drawn),inconclusive: -44.8%
20,CCOC(=O)c1cnc(-n2nc(C)cc2C)nc1NNc1cc(C)nc(-c2ccccc2)n1,inactive: 105%
21,CCCCOc1ccc(-c2nc(-c3cccnc3)no2)cc1,inconclusive: -49%
22,O=C(O)c1cc(N/N=C/c2ccc(N3CCOCC3)s2)ccc1Cl,inconclusive: -44.9%
23,CCCn1cnc2cc(NCc3cccc(OC)c3O)ccc21,inconclusive: -47.8%
24,Cc1cc(=O)[nH]c(N/N=C/c2ccc(Cl)cc2Cl)n1,inconclusive: -41.7%

row,Compound,activity score
1,Cc1c([N+](=O)[O-])c([N+](=O)[O-])nn1CC(=O)NCCc1ccccc1,inconclusive: -57.9%
2,O=C(N/N=C/c1sc2ccccc2c1O)c1ccccc1,inactive: 81.5%
3,CCCC(=O)Nc1ccc(C(=O)Nc2cccc(OC)c2)cc1,inconclusive: -60.1%
4,COc1ccc(Nc2nccc(-c3ccc([N+](=O)[O-])cc3)n2)cc1,inconclusive: -57%
5,N#C/C(=C\c1ccc(OCc2ccc(C(=O)O)cc2)cc1)C(=O)N1CCOCC1,inactive: 93%
6,Cc1ccccc1NC(=O)c1ccc2nc(N3CCOCC3)sc2c1,inconclusive: -56.9%
7,CCCCCC(=O)N[C@@H](c1ccccc1)[C@@H](O)C(=O)O[C@H]1C[C@@]2(O)[C@@H](OC(=O)c3ccccc3)C3[C@](C)(C(=O)[C@H](OC(C)=O)C(=C1C)C2(C)C)[C@@H](O)C[C@H]1OC[C@@]31OC(C)=O (stereo partly drawn),inactive: 87.2%
8,Clc1ccc2c(c1)C(C1=NCCN1)c1ccccc1CS2 (stereo not drawn),inactive: 78.7%
9,O=Cc1[nH]c2ccccc2c1N(C(=O)CCl)c1ccc([N+](=O)[O-])cc1,inactive: 84.2%
10,COC(=O)c1ccc(COc2ccc(/C=N/O)cc2OC)o1,inconclusive: -33.9%
11,Cn1nc(NC(=O)C(F)(F)F)c2ncc(-c3ccc(Cl)cc3)nc21,inconclusive: -55.6%
12,COc1cc(OC)cc(C(=O)Nc2nnc(SCC(=O)NCc3ccco3)s2)c1,inconclusive: -48.8%
13,O=C(Nc1ccc(-c2nc3ccccc3s2)cc1)C1=COCCO1,inactive: 94.2%
14,CCCOc1ccccc1C1CC(=O)Nc2cc3c(cc21)OCCO3 (stereo not drawn),inactive: 103%
15,Cc1ccc(C(=O)Nc2cccc(C(=O)O)c2)cc1,inactive: 86.9%
16,O=C(Nc1ccc(N2CCCC2)cc1)c1cccc(Cl)c1Cl,active: -99.6%
17,O=S(=O)(c1ccc(Cl)c(Cl)c1)c1snnc1-c1ccccc1,inactive: 118%
18,Cc1ccc(C(=O)Nc2ccc3c(c2)OCO3)cc1S(=O)(=O)N1CCCCC1,active: -66.6%
19,COc1ccc(C(=O)Nc2sc(C)c(C)c2CN2CC(C)OC(C)C2)cc1 (stereo not drawn),inconclusive: -55.9%
20,O=C(Nc1nnc(-c2ccncc2)s1)C1CCCO1 (stereo not drawn),inconclusive: -55.3%
21,CN(C)c1ccc(NC(=O)Cn2cc3c(n2)CCCC3)cc1,inconclusive: -57.9%
22,COc1ccc(/C=N/NC(=O)c2cccnc2)cc1COc1ccc([N+](=O)[O-])c(C)c1,inactive: 97.9%
23,COc1ccc(CNC(=O)c2c(C)oc3c2C(=O)c2ccccc2C3=O)cc1,inactive: 103%
24,O=C(CCCN1C(=O)/C(=C/c2ccccc2Cl)SC1=S)NNC(=O)c1ccccc1Cl,inactive: 100%

row,Compound,activity score
1,CC12CCC(=O)N1C(C(=O)NCCc1ccccc1)CS2 (stereo not drawn),inconclusive: -52.2%
2,C/C(=N\Nc1cc(C)nc(-c2ccccc2O)n1)c1ccccc1,active: -64.8%
3,O=C(Nc1ccc(N2CCN(C(=O)c3cccs3)CC2)cc1)c1ccc([N+](=O)[O-])o1,inactive: 106%
4,C/C(=N\NC(=O)C1COc2ccccc2O1)c1ccccn1 (stereo not drawn),inactive: 98.2%
5,CC(=O)Nc1ccccc1C(=O)C(=O)Nc1cccc(Br)c1,active: -78.8%
6,CC(C)(C)c1nnc(N/N=C/c2ccc(Br)cc2)n(N)c1=O,inconclusive: -59.6%
7,CCOC(=O)c1ccc(N2CN(CC)CNC2=S)cc1,inactive: 63.9%
8,CC1(C)Nc2ccccc2C(=O)N1c1ccccc1,inconclusive: -55.3%
9,Cc1sc(NC(=O)c2cccs2)c(C(N)=O)c1C,active: -255%
10,O=C(COc1ccccc1)NC1CCCCC1,inconclusive: -40.3%
11,C=C(C)Cc1c(C)c(C#N)c2nc3ccccc3n2c1NCCCN(C)C,inconclusive: -58.8%
12,Cc1nc(-c2cccnc2)sc1C(=O)Nc1ccc(C(F)(F)F)cc1,inconclusive: -54.4%
13,Fc1ccc(-n2nnc(-c3nccs3)n2)cc1,inconclusive: -56%
14,COc1ccc(C(=O)NC(=S)NNC(=O)c2ccc3ccccc3n2)cc1,inactive: 73.1%
15,O=C(Nc1ccc(N2CCOCC2)cc1)c1ccncc1,inconclusive: -51.1%
16,O=C(N/N=C/c1cc(Br)c(Br)o1)c1cc2ccccc2o1,inconclusive: -46.9%
17,O=C(CNc1ccccc1)c1ccc([N+](=O)[O-])cc1,inconclusive: -28.3%
18,COc1ccc(C2C(O)C(c3c[nH]c4ccccc34)=NN2C(=O)CCl)cc1 (stereo not drawn),inactive: 108%
19,Cc1nc(Nc2ccccc2Cl)sc1C(=O)Nc1ccccc1,inconclusive: -52.6%
20,COc1cc([N+](=O)[O-])c2nccnc2c1,inconclusive: -32.2%
21,Cn1c2ccc(Br)cc2c2nnc(SCC(=O)O)nc21,inactive: 62%
